Assay results from publication PMC10987122.
Numbering of substitutions follows the chain as printed. No constants are given. Whether binding was seen depends on the method and setting. For some assays here: In cells and extracts the contact can be indirect. Some results given as binding are weak or reduced against the parent protein; the word gives no strength. For some assays here: Sequences can lack the tags named with a protein. One block for each substance: values may come before it.

Protein sequences, listed by entry. Tags and fused reporters are not part of them.
UniProt P55884: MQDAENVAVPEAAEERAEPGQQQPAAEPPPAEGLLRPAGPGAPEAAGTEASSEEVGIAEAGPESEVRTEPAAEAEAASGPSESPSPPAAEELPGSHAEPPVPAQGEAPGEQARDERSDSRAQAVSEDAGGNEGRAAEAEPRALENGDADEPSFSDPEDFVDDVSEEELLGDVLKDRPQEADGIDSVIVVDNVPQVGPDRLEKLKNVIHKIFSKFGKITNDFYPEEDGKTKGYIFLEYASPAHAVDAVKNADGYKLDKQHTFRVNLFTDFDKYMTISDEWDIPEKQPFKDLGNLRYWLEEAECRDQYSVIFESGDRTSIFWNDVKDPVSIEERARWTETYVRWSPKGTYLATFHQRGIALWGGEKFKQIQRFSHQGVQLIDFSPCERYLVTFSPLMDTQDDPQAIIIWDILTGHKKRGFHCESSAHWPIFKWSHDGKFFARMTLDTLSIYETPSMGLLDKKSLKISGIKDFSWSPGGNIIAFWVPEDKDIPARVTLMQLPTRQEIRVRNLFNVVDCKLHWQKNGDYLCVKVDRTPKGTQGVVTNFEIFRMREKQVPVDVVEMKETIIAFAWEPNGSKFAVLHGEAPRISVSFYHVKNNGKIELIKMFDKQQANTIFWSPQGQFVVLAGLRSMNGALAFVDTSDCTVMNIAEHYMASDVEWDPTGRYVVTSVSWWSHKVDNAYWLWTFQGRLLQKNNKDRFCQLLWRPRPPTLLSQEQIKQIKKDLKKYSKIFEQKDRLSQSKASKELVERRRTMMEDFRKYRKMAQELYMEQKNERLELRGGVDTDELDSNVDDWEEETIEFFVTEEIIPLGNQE
UniProt Q99613: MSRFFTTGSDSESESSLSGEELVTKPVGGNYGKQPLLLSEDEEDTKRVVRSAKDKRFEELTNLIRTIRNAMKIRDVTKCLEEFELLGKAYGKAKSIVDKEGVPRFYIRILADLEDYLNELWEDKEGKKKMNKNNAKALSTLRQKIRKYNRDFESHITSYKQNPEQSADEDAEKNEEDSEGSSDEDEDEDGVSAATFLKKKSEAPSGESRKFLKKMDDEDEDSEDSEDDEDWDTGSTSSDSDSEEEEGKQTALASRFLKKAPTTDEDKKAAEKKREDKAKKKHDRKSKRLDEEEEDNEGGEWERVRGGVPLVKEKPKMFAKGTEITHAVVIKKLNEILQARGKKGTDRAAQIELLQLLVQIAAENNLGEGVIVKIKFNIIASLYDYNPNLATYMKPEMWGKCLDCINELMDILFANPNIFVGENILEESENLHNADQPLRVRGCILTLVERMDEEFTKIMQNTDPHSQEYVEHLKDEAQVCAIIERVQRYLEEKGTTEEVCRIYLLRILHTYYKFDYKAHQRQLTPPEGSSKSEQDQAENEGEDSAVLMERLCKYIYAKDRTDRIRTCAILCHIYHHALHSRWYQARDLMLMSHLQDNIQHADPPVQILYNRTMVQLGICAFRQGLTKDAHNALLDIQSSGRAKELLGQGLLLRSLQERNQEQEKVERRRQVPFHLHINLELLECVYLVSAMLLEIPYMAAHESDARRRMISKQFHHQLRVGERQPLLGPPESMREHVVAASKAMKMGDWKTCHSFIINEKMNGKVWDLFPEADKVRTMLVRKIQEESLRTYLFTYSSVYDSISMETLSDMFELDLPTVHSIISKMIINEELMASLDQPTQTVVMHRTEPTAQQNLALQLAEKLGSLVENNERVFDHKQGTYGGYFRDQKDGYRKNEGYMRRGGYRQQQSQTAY

Experiments:
Flag-labelled YTHDF2 = biological target: T1, Flag-labelled YTHDF2 (UniProt Q9Y5A9); assay: co-IP; exogenous co-IP; HEK-293T cells co-transfected with Flag-labelled YTHDF2 and HA-labelled eIF3b constructs for 48 h
T1 sequence: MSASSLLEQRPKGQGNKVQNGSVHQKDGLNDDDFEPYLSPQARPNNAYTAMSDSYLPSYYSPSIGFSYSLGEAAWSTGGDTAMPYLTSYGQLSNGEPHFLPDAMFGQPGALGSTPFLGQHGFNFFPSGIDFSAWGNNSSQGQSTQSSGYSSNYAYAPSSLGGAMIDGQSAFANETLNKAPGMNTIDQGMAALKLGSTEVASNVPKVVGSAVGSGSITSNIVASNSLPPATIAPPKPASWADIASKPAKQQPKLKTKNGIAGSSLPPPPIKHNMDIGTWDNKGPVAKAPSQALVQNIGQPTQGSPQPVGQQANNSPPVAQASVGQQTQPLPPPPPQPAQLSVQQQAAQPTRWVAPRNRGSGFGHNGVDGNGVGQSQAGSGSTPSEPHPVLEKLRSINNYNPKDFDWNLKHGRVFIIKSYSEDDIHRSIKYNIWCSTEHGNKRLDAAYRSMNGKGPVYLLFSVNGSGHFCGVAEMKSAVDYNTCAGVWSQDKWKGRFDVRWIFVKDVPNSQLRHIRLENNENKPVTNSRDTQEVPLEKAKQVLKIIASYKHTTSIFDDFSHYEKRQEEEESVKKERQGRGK

[1] = biological target: T2, Flag-labelled YTHDF2 (W278A) (UniProt Q9Y5A9); assay: as above
T2 sequence: T1 sequence with W278A

GST-labelled YTHDF2 = biological target: T3, GST-labelled YTHDF2 (UniProt Q9Y5A9); assay: pull-down; GST-pulldown: purified GST-YTHDF2 with purified His-labelled eIF3 subunit proteins; both purified
T3 sequence: T1 sequence

[2] = biological target: T4, endogenous YTHDF2 (human (endogenous in MHCC97H)) (UniProt Q9Y5A9); assay: co-IP; endogenous co-immunoprecipitation in MHCC97H cells
T4 sequence: T1 sequence

binding (Flag-labelled YTHDF2): binds
binding [1]: no binding
Substance: HA-labelled eIF3b (from UniProt P55884 1-814)

binding (GST-labelled YTHDF2): binds
Substance: His-labelled eIF3b (from UniProt P55884 1-814)

binding (GST-labelled YTHDF2): binds
Substance: His-labelled eIF3c (from UniProt Q99613 1-913)

binding [2]: binds
Substance: endogenous eIF3b (from UniProt P55884 1-814)
